Test results published in PubChem BioAssay AID485281 (National Center for Advancing Translational Sciences (NCATS), 2010).
In all, about 350,000 compounds went through this assay and about 260 (0.074%) were called active. Inconclusive results, whose numbers are uncertain, are shown with a selection of clear calls. The call rests on the fitted dose curve; in most records, active means well fitted inhibition curve with a large enough effect; inconclusive means small, poorly fitted or top-dose-only effect; inactive means no such curve, though single readings can be large or run the other way. A potency beside an inconclusive call is a rough fit, not a confirmed value.

target: Ferritin light chain (Equus caballus) (UniProt P02791); assay: qHTS Assay for Identification of Novel General Anesthetics; conditions: apoferritin/1-aminoanthracene competitive binding, fluorescence; activity change, negative = displacement: at 77.5 µM (top of the series); further: nearly all actives have a fitted effect of over 20% in size
Chain of UniProt P02791 (P02791 whole entry, looked up): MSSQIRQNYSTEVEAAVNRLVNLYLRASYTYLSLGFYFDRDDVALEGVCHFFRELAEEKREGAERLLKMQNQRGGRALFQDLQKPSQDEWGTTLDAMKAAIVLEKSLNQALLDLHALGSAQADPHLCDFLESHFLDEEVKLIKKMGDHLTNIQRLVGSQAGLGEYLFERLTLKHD
In short: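 Concentration-response curves derived by four-parameter Hill fitting of normalized fluorescence, where compounds displaced 1-AMA from 10 uM horse apoferritin following a brief 10 min room-temperature incubation; propofol titration acted as positive control.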
On the % scale 0 is the no-effect control and ±100 the full control effect; potency means the concentration at half of the fitted maximal effect; tags describe the fitted curve by direction and shape.

Potency, inconclusive:
O=C1C2C3C=CC(C4CC34)C2C(=O)N1c1cccc2ccccc12 (configuration not stated) 10 µM [inhibitor, partial curve]
O=C(CN1C(=O)C2C3C=CC(C4CC34)C2C1=O)Nc1cccc2ncccc12 (configuration not stated) 25.1 µM [inhibitor, partial curve]
Cn1nnnc1SCC(=O)c1ccc(Br)s1 20 µM [inhibitor, partial curve]
O=C(c1cccc(Oc2ccc([N+](=O)[O-])cc2Cl)c1)N1CCCCC1 22.4 µM [inhibitor, partial curve]
Cn1c(=O)oc2cc(S(=O)(=O)NCCC(=O)N3CC=C(c4ccccc4)CC3)ccc21 28.2 µM [inhibitor, partial curve]
O=C(NCc1ccccc1)Nc1cccn(Cc2ccccc2Cl)c1=O 3.16 µM [inhibitor, full curve]
COc1ccc2c(CSc3nc4nc(C)cc(C)n4n3)cc(=O)oc2c1 31.6 µM [inhibitor, partial curve]
CCN(Cc1ccccc1)C(=O)c1cnn(-c2ccc(F)cc2)c1-n1cccc1 35.5 µM [inhibitor, single point]
CCc1ccc(N2CC(C(=O)Nc3ccc(C)c(S(=O)(=O)N4CCOCC4)c3)CC2=O)cc1 (configuration not stated) 2.82 µM [inhibitor, partial curve, poor fit]
COc1ccc(S(=O)(=O)NC2CC3CCC2C3)cc1Br (configuration not stated) 15.8 µM [inhibitor, partial curve]
Nc1nc(-c2cc3c(cc2Cl)OCCO3)cs1 28.2 µM [inhibitor, partial curve]
C1=CC2CC1CC2CNCc1ccco1 (configuration not stated) 25.1 µM [inhibitor, partial curve]
CCCn1c(=N)c(C(=O)NCc2ccc3c(c2)OCO3)cc2c(=O)n3cccc(C)c3nc21 3.55 µM [inhibitor, full curve]
CSCCC(C(=O)N1C[C@]2(C)C[C@H]1CC(C)(C)C2)N1C(=O)c2ccccc2C1=O (some centres not stated) 39.8 µM [inhibitor, partial curve]
Cc1ccc(S(=O)(=O)N2CCOCC2)cc1C(=O)NCCN1C(=O)S/C(=C\c2ccccc2Cl)C1=O 11.2 µM [inhibitor, partial curve, poor fit]
Fc1ccc(C2=CC(c3ccc(F)cc3)n3c(nc4ccccc43)N2)cc1 (configuration not stated) 11.2 µM [inhibitor, partial curve]
CCn1c(COc2ccc(C)cc2)nnc1SCc1nc2ccccc2[nH]1 39.8 µM [inhibitor, partial curve]
COc1ccc(C(C)NC(=O)CC23CC4CC(CC(C4)C2)C3)cc1 (configuration not stated) 39.8 µM [inhibitor, single point]
CCNC(=S)NNC(=O)c1cc(-c2cc(C)ccc2C)nc2ccccc12 25.1 µM [inhibitor, partial curve]
CCCCOc1ccc(N2C(=O)CC(NCc3ccncc3)C2=O)cc1 (configuration not stated) 25.1 µM [inhibitor, partial curve]
Cc1nn(C)cc1CNC(=O)c1cnn2c1NC(c1ccc(Br)cc1)CC2C(F)(F)F (configuration not stated) 44.7 µM [inhibitor, single point]
Nc1c(C=C2C=CC(=O)C=C2)c(=O)nc2snc(SCc3ccccc3)n12 14.1 µM [inhibitor, partial curve]
COc1cc(OC)c(C2CC(=O)N3CN(c4ccccc4)CSC3=C2C#N)cc1OC (configuration not stated) 44.7 µM [inhibitor, single point]
CC(C)(C)C1CCc2sc(-c3nnc(CCl)o3)cc2C1 (configuration not stated) 35.5 µM [inhibitor, partial curve]
O=C(Nc1ccc2c(c1)OCO2)OCc1ccccc1 14.1 µM [inhibitor, partial curve]
O=C(c1ccc(COc2ccccc2[N+](=O)[O-])o1)N1CCCCCC1 35.5 µM [inhibitor, partial curve]
Cc1sc(NC(=O)/C=C/c2ccco2)c(C(=O)OC(C)C)c1C 50.1 µM [inhibitor, single point]
Cc1ccccc1OCCCN1C(=O)C(=O)c2cccc(C)c21 31.6 µM [inhibitor, single point]
O=C(NCc1ccc(F)cc1)c1noc2c1CCCC2 39.8 µM [inhibitor, partial curve]
CCN(C(=O)Cn1c(=O)n(-c2ccccc2)c(=O)c2ccc(C(=O)NCc3ccc4c(c3)OCO4)cc21)c1cccc(C)c1 15.8 µM [inhibitor, partial curve]
O=C1Nc2ccc([N+](=O)[O-])cc2OC1CCN1CCN(Cc2ccc3c(c2)OCO3)CC1 (configuration not stated) 31.6 µM [inhibitor, partial curve]
O=S(=O)(NC1CCCC1)c1ccccc1Br 28.2 µM [inhibitor, partial curve]

Potency, inactive:
CCCOc1ccc(-c2nc(C#N)c(N3CCN(C)CC3)o2)cc1
O=[N+]([O-])c1ccccc1OCCOc1ccccc1[N+](=O)[O-]
CSc1nc(Oc2ccc(=O)[nH]n2)nc(N(C)C)n1
Cc1cc(C)n2c(=S)[nH]nc2n1
O=C(NCc1cccnc1)c1nn(-c2ccc(F)cc2)nc1CO
COc1ccc(C(=O)Nc2cccc(-c3nc4ncccc4o3)c2C)cc1OC
Cc1csc(NC(=O)c2sc3nc(-c4cccs4)ccc3c2N)n1
Cc1cc2n(n1)C(c1cccs1)Nc1ccccc1-2 (configuration not stated)
O=C(O)CCN1C(=O)c2ccc(NC(=O)c3cccs3)cc2C1=O

Activity change, negative = displacement, inactive:
COC(=O)C1=C(C)[C@@H](O)[C@@H](C)[C@H](c2c(OC)c(OC)c(C)c(OC)c2OC)O1 -7.85% [at 15.3 µM]
